Out of some 420,000 compounds screened, about 64,000 (15%) were called active. Inconclusive means that the source gave no clear call. Such entries were picked first, then a sample of the others. Calls come from the whole dose curve; as a rule, active = well fitted inhibition curve with a large enough effect; inconclusive = small, poorly fitted or top-dose-only effect; inactive = flat fitted curve, though single readings scatter. Potencies of inconclusive entries are left out as doubtful fits.
Experiment: qHTS for Inhibitors of human tyrosyl-DNA phosphodiesterase 1 (TDP1): qHTS in cells in absence of CPT; note: nearly all actives have a fitted effect of over 55% in size
Conditions: DT40 Tdp1-/- hTDP1 cells, no CPT, ATP luminescence, 48 h; activity change, negative = growth inhibition: at 46.2 µM (top of the series) unless noted
In short: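 Luminescent ATP content (CellTiter-Glo) served as the growth readout. Knockout chicken DT40 cells expressing human TDP1 were exposed to compounds without camptothecin for a minimum 48 hr at 37 °C.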
% is set by controls: 0 for no effect and ±100 for the full control effect; potency is the fitted concentration of half-maximal effect; tags give direction and shape of the fitted curve.

SMILES	Potency	activity change, negative = growth inhibition
COc1cc(/C=N/Nc2ccccc2[N+](=O)[O-])cc(OC)c1O	active: 6.51 µM	–
O=C(NCc1n[nH]c(=S)n1Cc1ccccc1)c1ccc(Cl)cc1Cl	inconclusive [inhibitor, single point]	–
O=C(O)c1cn(-c2ccccc2)nc1-c1cccnc1	inactive	–
COc1ccc(N2CCN(c3cc(C)nc4ccc(OC)cc34)CC2)cc1	active: 23.1 µM	–
Cc1ccc(NC(=O)CC(O)(C(F)(F)F)C(F)(F)F)cc1	inconclusive [inhibitor, single point]	–
COc1ccccc1NC(=O)c1ccc(C(=O)Nc2ccccc2OC)nc1	inconclusive [inhibitor, single point]	–
C=CCNc1ccccc1S(=O)(=O)NCc1ccccc1	inactive	–
CCOc1ccccc1CNC(=O)c1cccc(NC(=O)c2nsc3ccccc23)c1	active: 5.17 µM	–
N/C(=N\OC(=O)c1cc(-c2ccccc2)nc2ccccc12)c1ccccn1	active: 11.6 µM	–
CCOC(=O)c1sc(NC(=O)CCCn2nc([N+](=O)[O-])c(Cl)c2C)c(C(=O)OCC)c1C	inconclusive [inhibitor, single point]	–
Cc1ccc(S(=O)(=O)N2CCN(C(=O)COC(=O)Cc3ccc(F)cc3)CC2)c(C)c1	inactive	–
COc1ccc(C(=O)Nc2ccc3c(c2)C(=O)N(C)C3=O)cc1OC	inactive	–
Cc1ccc(-c2csc3nc(SCC(=O)N(C)C)n(Cc4ccccc4)c(=O)c23)cc1	active: 13 µM	–
CCC1CCCCN1CCCNC(=O)CSc1nc2nc(C)c(Cc3ccccc3)c(C)n2n1 (stereo not given)	inactive	–
COc1ccc(C2=CC3=C(Br)C(=O)C(C)(OC(=O)c4cccs4)C(=O)C3=CO2)cc1 (stereo not given)	inconclusive [inhibitor, single point]	–
O=C(Cn1cnnn1)Nc1ccccc1Cc1ccccc1	inactive	–
COc1ccccc1CN1CC(C(=O)NCCN2CCOC2=O)CCC1=O (stereo not given)	inactive	–
O=C(Oc1ccc(Nc2ncnc3ccccc23)cc1)c1cccnc1	inconclusive [inhibitor, single point]	–
CC(=Cc1ccccc1)C(=O)c1ccccc1	inconclusive [inhibitor, single point]	–
Cc1cc(C)c2nc(C(F)(F)F)nc(N3CC(C)OC(C)C3)c2c1 (stereo not given)	inconclusive [inhibitor, single point]	–
COc1cccc(CNC(=O)Nc2cc(C(=O)NCc3cccc(F)c3)ccc2N2CCCC2)c1	inconclusive [inhibitor, partial curve]	–
S=C(Nc1ccccc1Cl)NC1CCC(NC(=S)Nc2ccccc2Cl)CC1 (stereo not given)	inactive	–
CSc1nc2oc3c(c2c2nncn12)CC(C)(C)SC3	inconclusive [inhibitor, single point]	–
Cc1cc(C)c(S(=O)(=O)NC2CC(C)(C)NC(C)(C)C2)cc1Br	inconclusive [inhibitor, single point]	–

SMILES	Potency	activity change, negative = growth inhibition
Fc1ccccc1-c1cc2cc3c(cc2cn1)OCO3	inconclusive [inhibitor, single point]	–
CCOC(=O)N1CCC(NC(=O)c2oc3c(C)c(C)ccc3c2C)CC1	inconclusive [inhibitor, single point]	–
COc1ccccc1-c1nn(Cc2ccccc2)cc1C(=O)N1CCN(c2ncccn2)CC1	active: 16.4 µM	–
CCC(Oc1ccc(F)cc1)C(=O)Nc1cc(-c2ccc(C)cc2)no1 (stereo not given)	inconclusive [inhibitor, single point]	–
COc1cc(Br)cc(CN2CCN(C/C=C/c3ccccc3)CC2)c1O	inconclusive [inhibitor, single point]	–
CC(=O)c1ccc(NC(=O)c2ccc(C)c(S(=O)(=O)N3CCOCC3)c2)cc1	inconclusive [inhibitor, single point]	–
CCN(CC)c1ccc(NC(=O)c2cc(CN3CCCC3)on2)c(C)c1	active: 13 µM	–
CC1(C)Cc2c(sc(NC(=O)c3ccc4ncsc4c3)c2C(N)=O)C(C)(C)N1	inconclusive [inhibitor, single point]	–
CCOC(=O)CSC1=NC(=O)/C(=C\c2ccc(OC(C)=O)cc2)S1	active: 2.91 µM	–
CCOc1cc(CNC(=O)c2ccc(NC(=O)c3nsc4ccccc34)cc2)ccc1OC	inconclusive [inhibitor, single point]	–
O=C(NCC(c1ccc(F)cc1)N1CCOCC1)c1cccc(Br)c1 (stereo not given)	inconclusive [inhibitor, single point]	–
CCC1CCCCN1CCCNC(=O)C1CCC(CNS(=O)(=O)c2c(C)cc(C)cc2C)CC1 (stereo not given)	inconclusive [inhibitor, single point]	–
CC(C)(C)c1ccc(NC(=O)COC(=O)C2=COCCO2)cc1	–	inconclusive: -37.2% [inhibitor]
Cc1cc(C)cc(Cn2c3ccc(NC(=S)NC4CCCCC4)cc3c(=O)n2C)c1	inconclusive [inhibitor, partial curve, poor fit]	–
Cc1ccc2nc(NC(=O)CSc3nc4ccccc4o3)sc2c1	inconclusive [inhibitor, single point]	–
O=C(Nc1ccccn1)c1cccc(S(=O)(=O)N2CCCc3ccccc32)c1	inconclusive [inhibitor, single point]	–
CC(C)CC(=O)Nc1ncc([N+](=O)[O-])s1	inconclusive [inhibitor, partial curve, poor fit]	–
Cn1c(=O)c2ccccc2n2c(CCC(=O)N3CCN(c4cccc(Cl)c4)CC3)nnc12	inconclusive [inhibitor, full curve]	–
c1ccc(C(c2nnnn2C2CCCC2)N2CCN(c3nc4ccccc4s3)CC2)cc1 (stereo not given)	inconclusive [inhibitor, single point]	–
CCCCN(C(=O)CSCC(=O)Nc1ccc(C)cc1)c1c(N)n(CCCC)c(=O)[nH]c1=O	–	inconclusive: -31.8% [inhibitor]
CC(NC(=O)C1CCN(S(=O)(=O)c2ccc(Br)s2)CC1)c1ccccc1 (stereo not given)	inactive	–
C=CCC1CCC/C(=N\NS(=O)(=O)c2ccc(C)cc2)C1 (stereo not given)	inactive	–
COCCCn1c(SCC(=O)NCc2ccccc2)nc2ccccc2c1=O	inconclusive [inhibitor, single point]	–
CC1CCc2nn(CC(=O)NCc3ccc(F)cc3)cc2C1 (stereo not given)	inconclusive [inhibitor, partial curve, poor fit]	–

SMILES	Potency	activity change, negative = growth inhibition
c1cc(-c2ccoc2)n2ccnc2c1	inconclusive [inhibitor, partial curve, poor fit]	–
CCS(=O)(=O)N1CCN(c2ccc([N+](=O)[O-])c(NCc3ccccc3)c2)CC1	inconclusive [inhibitor, single point]	–
Cc1ccc(C(C)NC(=S)NC2CCCCC2)c(C)c1 (stereo not given)	inconclusive [inhibitor, single point]	–
O=S(=O)(c1ccccc1)N1N=C(c2cccs2)CC1c1cccc(O)c1 (stereo not given)	active: 16.4 µM	–
COCCn1c(C)cc(C(=O)COC(=O)/C=C/c2c(C)nn(C3CCS(=O)(=O)C3)c2Cl)c1C (stereo not given)	inconclusive [inhibitor, single point]	–
CCN1CCN(c2csc3ccc(Cl)cc3c2=O)CC1	inactive	–
CCOC(=O)c1ccc(NC(=S)N(CCCN2CCCC2)Cc2cccs2)cc1	inconclusive [inhibitor, single point]	–
Cc1cc(NC(=O)C(C)SCC(=O)N(C)Cc2ccccc2F)no1 (stereo not given)	inactive	–
CCOc1ccccc1C(=O)OCC(=O)Nc1cc(Cl)ccc1Oc1ccccc1	inconclusive [inhibitor, single point]	–
CN=c1scc(C)n1/N=C/c1cc(Br)c(O)c(OC)c1	active: 16.4 µM	–
COc1cccc2c1O/C(=N\O)C(C(=O)Nc1cccc(Br)c1)C2 (stereo not given)	inconclusive [inhibitor, single point]	–
COc1ccc(C)cc1/C=C/C(=O)N1CCN(S(=O)(=O)c2cccs2)CC1	inconclusive [inhibitor, single point]	–
Cc1cc(C)cc(N2C(=O)CC(c3ccc(C(F)(F)F)cc3)C3=C2COC3=O)c1 (stereo not given)	inactive	–
Cc1ccc(-c2cc3nc(-c4ccccc4)cc(NCCCO)n3n2)cc1	inconclusive [inhibitor, partial curve, poor fit]	–
CCN(Cc1ccccc1)C(=O)Cn1c(=O)oc2ccccc21	inactive	–
CC1Cc2ccccc2N1S(=O)(=O)c1cnc(Cl)c(Br)c1 (stereo not given)	inconclusive [inhibitor, single point]	–
CC(/C=C/c1ccc(OCc2ccccc2)cc1)=N\O	–	inconclusive: -35.1% [inhibitor]
Cc1ccc(Nc2c(-c3ccc(C)o3)nc3ccccn23)cc1	active: 12.6 µM	–
COc1ccccc1N1CCN(C(c2cc3ccc(C)cc3[nH]c2=O)c2nnnn2C2CCCC2)CC1 (stereo not given)	inconclusive [inhibitor, single point]	–
CCOc1ccc2c(c1)s/c(=N\S(=O)(=O)c1ccc(OC)cc1)n2C(F)F	inconclusive [inhibitor, partial curve]	–
CCCCN(CCCC)c1nc(OC)nc(-n2nnc(C(C)=O)c2C)n1	inconclusive [inhibitor, single point]	–
Cc1ccc(-n2nnnc2SCC(=O)c2ccc3c(c2)NC(=O)CO3)c(C)c1	inconclusive [inhibitor, partial curve, poor fit]	–
